Experimental data taken from PubChem BioAssay AID1460 (National Center for Advancing Translational Sciences (NCATS), 2008).
Values joined by “and” are separate entries in the source; they are usually repeats but may differ in a detail not shown here. Equal entries are not always repeated. In all, about 270,000 compounds went through this assay and about 5,800 (2.1%) were called active. Inconclusive results, whose numbers are uncertain, are shown with a selection of clear calls. Calls follow the shape of the dose curve; as a rule, active = well fitted inhibition curve with a large enough effect; inconclusive = small, poorly fitted or top-dose-only effect; inactive = flat fitted curve, though single readings scatter. Potencies of inconclusive entries are doubtful fits and often do not repeat.

Biological target: Microtubule-associated protein tau (Homo sapiens) (UniProt P10636)
Experiment: qHTS for Inhibitors of Tau Fibril Formation, Thioflavin T Binding; also: nearly all actives have a fitted effect of over 55% in size
Conditions: recombinant tau K18 P301L (four-repeat tau fragment), heparin-induced fibrillization, ThT fluorescence; series mostly up to 57.4 µM; activity, negative = inhibition: at the top concentration
Outline: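 In this qHTS, human K18 P301L tau is incubated with compound and heparin for 6 hr at 37 C, and Thioflavin T fluorescence then reports fibril load.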
% is scaled to controls: 0 for no effect and ±100 for the full control effect; potency is read from the fitted curve at half-maximal effect; tags tell the direction and shape of the fitted curve.

Sequence of UniProt P10636 (P10636 whole entry, looked up): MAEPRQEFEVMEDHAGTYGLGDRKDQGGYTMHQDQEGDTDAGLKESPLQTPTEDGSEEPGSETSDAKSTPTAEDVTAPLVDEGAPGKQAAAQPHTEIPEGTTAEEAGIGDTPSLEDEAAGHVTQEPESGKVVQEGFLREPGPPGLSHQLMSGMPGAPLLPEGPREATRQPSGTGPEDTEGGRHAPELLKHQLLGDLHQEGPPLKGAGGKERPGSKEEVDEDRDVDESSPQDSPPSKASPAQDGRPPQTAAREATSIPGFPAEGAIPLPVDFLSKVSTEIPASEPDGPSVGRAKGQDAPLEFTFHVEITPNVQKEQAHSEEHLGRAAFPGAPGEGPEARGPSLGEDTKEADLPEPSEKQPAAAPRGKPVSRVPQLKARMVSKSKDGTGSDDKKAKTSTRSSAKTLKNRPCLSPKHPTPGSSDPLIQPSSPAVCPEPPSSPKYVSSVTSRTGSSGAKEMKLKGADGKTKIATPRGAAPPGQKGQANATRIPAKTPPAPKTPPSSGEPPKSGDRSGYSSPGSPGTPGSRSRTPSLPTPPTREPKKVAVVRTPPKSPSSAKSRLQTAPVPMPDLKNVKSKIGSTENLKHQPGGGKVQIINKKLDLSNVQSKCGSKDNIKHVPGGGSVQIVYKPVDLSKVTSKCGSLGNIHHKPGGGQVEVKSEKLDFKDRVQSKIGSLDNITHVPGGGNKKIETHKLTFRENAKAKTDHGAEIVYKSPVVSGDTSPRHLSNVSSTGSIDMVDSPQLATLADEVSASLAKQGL

Question: Which “activity, negative = inhibition” value does the source give for `O=C(Nc1ccccc1)NC1CCS(=O)(=O)C1` (stereo not drawn) here?
Answer: inactive: -5.88%

Question: `CCOC(=O)c1c(NC(=O)c2cc3nc(-c4ccc(Br)cc4)cc(C(F)(F)F)n3n2)sc(C(C)=O)c1C` was tested. Which “activity, negative = inhibition” value did it give?
Answer: inactive: -9.8%

Question: `Cc1ccc(S(=O)(=O)NCCC(=O)Oc2ccc3ccc(=O)oc3c2)cc1` was tested. Which Potency did it give?
Answer: inconclusive: 22.4 µM [inhibitor, partial curve]

Question: `CCC(SC1=NCCS1)C(=O)Nc1nnc(-c2ccccc2OC)s1` (stereo not drawn) was tested. Which Potency did it give?
Answer: inconclusive: 11.2 µM [inhibitor, partial curve, poor fit]

Question: Which Potency does the source give for `C=CCn1c(=O)/c(=C/c2ccc(Cl)cc2)s/c1=C(/C#N)c1nnc2n1CCCCC2` here?
Answer: inconclusive: 31.6 µM [inhibitor, partial curve]

Question: Which “activity, negative = inhibition” value does the source give for `Cc1ccc(NS(=O)(=O)c2cc(-c3cnc(C4CC4)o3)ccc2C)cc1Cl` here?
Answer: inactive: -6.38%

Question: Which Potency does the source give for `c1ccc(N2CCN(CCCOc3ccc4c(c3)OCO4)CC2)cc1` here?
Answer: inconclusive: 25.1 µM [inhibitor, partial curve, poor fit] and inconclusive: 11.2 µM [inhibitor, partial curve]

Question: How did the Potency turn out when `Cc1noc(C)c1N=Nc1ccc(Br)cc1C(=O)O` was run?
Answer: inconclusive: 17.8 µM [inhibitor, partial curve]

Question: Which Potency does the source give for `Cc1ccc(C)c(NC(=O)Cn2cc(C(=O)c3cccs3)c3ccccc32)c1` here?
Answer: inconclusive: 10 µM [inhibitor, partial curve]

Question: How did the Potency turn out when `CC(C)Oc1ccc(C(=O)NCC(c2ccc(N(C)C)cc2)N2CCCC2)cc1` (stereo not drawn) was run?
Answer: inconclusive: 39.8 µM [inhibitor, single point]

Question: Which “activity, negative = inhibition” value does the source give for `O=C(CN1C(=O)COc2ccccc21)N(Cc1ccccc1)Cc1ccccn1` here?
Answer: inactive: -2.51%

Question: Which “activity, negative = inhibition” value does the source give for `Cc1cccc(N(CC(=O)NCCSCc2cccc(Cl)c2)S(=O)(=O)c2ccccc2)c1C` here?
Answer: inactive: -8.83%

Question: For `Cn1c2c(c(=O)n(C)c1=O)C(c1cccc(F)c1)C(C#N)=C(N)O2` (stereo not drawn), which Potency is on record?
Answer: inconclusive: 28.2 µM [inhibitor, partial curve]

Question: How did the Potency turn out when `C/C(=N\N1CCN(c2ccccc2)CC1)c1ccco1` was run?
Answer: inconclusive: 15.8 µM [inhibitor, partial curve]

Question: For `Cc1cs/c(=N\N=C\c2ccccc2)n1Cc1ccco1`, which Potency is on record?
Answer: inconclusive: 15.8 µM [inhibitor, partial curve]

Question: For `O=C(NNS(=O)(=O)c1ccc(C(=O)NC2CCCC2)cc1)c1ccncc1`, which “activity, negative = inhibition” value is on record?
Answer: inactive: 1.35%

Question: Which Potency does the source give for `N#C/C(=C\c1ccc([N+](=O)[O-])cc1)C(=O)NCCCn1ccnc1` here?
Answer: inconclusive: 15.8 µM [inhibitor, partial curve]

Question: How did the activity, negative = inhibition turn out when `CC(C)CO/N=C1/C[C@@H](O)[C@@H](O)[C@@H]2[C@H]3C(=O)N(c4ccc(F)cc4F)C(=O)[C@@H]3CC[C@H]12` was run?
Answer: inactive: -7.23% [at 11.5 µM]

Question: For `O=C(c1cn(-c2ccccc2)nc1-c1cccc(Br)c1)N1CCOCC1`, which “activity, negative = inhibition” value is on record?
Answer: inactive: 2.22%

Question: `NC(=O)c1cc2ccc(O)cc2oc1=Nc1ccccc1` was tested. Which Potency did it give?
Answer: inconclusive: 20 µM [inhibitor, single point]

Question: For `Cc1ccc(-n2nc(C)c3c(C(=O)NCCc4ccccc4)cc(C)nc32)cc1`, which “activity, negative = inhibition” value is on record?
Answer: inactive: -11.6%

Question: With `O=C1N=C(N2CCOCC2)S/C1=C1\C(=O)N(Cc2ccccc2)c2ccc(Br)cc21` as the compound, how does the Potency read?
Answer: inconclusive: 3.55 µM [inhibitor, full curve]

Question: Which “activity, negative = inhibition” value does the source give for `CCN(CC)c1ccc(C(=O)NCc2ccc3c(c2)CCN3C(=O)c2ccc(F)cc2)cc1` here?
Answer: inactive: 7.85%

Question: With `CCN(CC)CCCNC(=O)c1nn(C)c2c1CSc1ccccc1-2` as the compound, how does the Potency read?
Answer: inconclusive: 31.6 µM [inhibitor, single point]

Question: For `COc1ccccc1-c1cc(C(=O)Nc2cc(OC)c(OC)c(OC)c2)no1`, which Potency is on record?
Answer: inconclusive: 12.6 µM [inhibitor, partial curve]

Question: Which “activity, negative = inhibition” value does the source give for `COc1ccc(OC)c(CNC(=O)C2CCCCN2S(=O)(=O)c2ccc(F)cc2)c1` (stereo not drawn) here?
Answer: inactive: 0.546%

Question: For `Cc1cc(OCC(O)CN2CCN(c3cccc(Cl)c3)CC2)ccc1Cl` (stereo not drawn), which Potency is on record?
Answer: inconclusive: 7.08 µM [inhibitor, partial curve]

Question: `Cc1cc(/C=N\NC(=O)COc2cccc3cccnc23)c(C)n1-c1ccccc1` was tested. Which Potency did it give?
Answer: active: 25.1 µM

Question: `COc1ccc(NC(=O)c2sc(=S)[nH]c2N)cc1` was tested. Which Potency did it give?
Answer: inconclusive: 28.2 µM [inhibitor, single point]

Question: How did the Potency turn out when `COc1cc2c3nnc(-c4ccc(F)cc4)c-3cn(Cc3ccccc3)c2cc1OC` was run?
Answer: inconclusive: 31.6 µM [inhibitor, single point]

Question: For `COc1ccc(-c2nn3c(=O)cc(CN4CCN(S(=O)(=O)c5ccc(C)cc5)CC4)nc3s2)cc1`, which “activity, negative = inhibition” value is on record?
Answer: inactive: -17.6%

Question: With `CC1=C(C(=O)Nc2ccc(C)cc2C)C(c2ccc(O)cc2)n2nc(SCC(=O)c3ccc(C)cc3)nc2N1` (stereo not drawn) as the compound, how does the Potency read?
Answer: inconclusive: 31.6 µM [activator, single point]

Question: `Cc1ccccc1NC(=O)c1ccc(-c2ccc(Cl)cc2Cl)o1` was tested. Which Potency did it give?
Answer: inconclusive: 3.55 µM [inhibitor, full curve]

Question: With `COc1ccc(-c2nc(Cn3c(SCc4cccc(C(F)(F)F)c4)nc4cccnc43)c(C)o2)cc1OC` as the compound, how does the Potency read?
Answer: inconclusive: 28.2 µM [inhibitor, partial curve]

Question: How did the Potency turn out when `COc1ccc(C(=O)c2sc3nc(-c4ccc(F)cc4)ccc3c2N)cc1` was run?
Answer: inconclusive: 1 µM [inhibitor, full curve]

Question: With `COc1ccc(-c2ccc(CCC(=O)O)n2-c2ccccc2O)cc1` as the compound, how does the Potency read?
Answer: inconclusive: 39.8 µM [inhibitor, single point]

Question: `CC(C)C[C@H](NC(=O)c1nc[nH]c1C(=O)NCC(=O)OC(C)(C)C)C(=O)OC(C)(C)C` was tested. Which “activity, negative = inhibition” value did it give?
Answer: inactive: -2.23%

Question: `CC1CCN(c2c(NCc3ccc(C(=O)NCc4cccnc4)cc3)c(=O)c2=O)CC1` was tested. Which “activity, negative = inhibition” value did it give?
Answer: inactive: -0.288%

Question: Which Potency does the source give for `COc1ccc(C(=O)Nc2ccc(C(=O)NCCc3ccc(OC)c(OC)c3)cc2)cc1` here?
Answer: inconclusive: 0.282 µM [inhibitor, full curve]

Question: With `CC(=O)Nc1cccc(-c2nnc(SCc3ccccc3C#N)n2C)c1` as the compound, how does the “activity, negative = inhibition” value read?
Answer: inactive: -11.5%

Question: How did the Potency turn out when `Fc1ccc(NC(=S)Nc2ccc3nccnc3c2)cc1` was run?
Answer: inconclusive: 25.1 µM [inhibitor, single point]

Question: For `O=C(CN1CCOCC1)NN1CC(=O)N(c2ccc(Cl)cc2)CC1=O`, which “activity, negative = inhibition” value is on record?
Answer: inactive: 0.577%

Question: With `COc1ccc(S(=O)(=O)Nc2cc3c(C(=O)OC(C)C)c(C)oc3c3ccccc23)cc1` as the compound, how does the Potency read?
Answer: inconclusive: 2.82 µM [inhibitor, partial curve, poor fit]
